Our source for the inhibition values is PubChem BioAssay AID485344 (National Center for Advancing Translational Sciences (NCATS), 2010).

In all, about 340,000 compounds went through this assay and about 6,900 (2%) were called active. No stated cut-off is given here; in the data, active means inhibition above about 30%; inactive means below that, where a call was filed. This is a selection; strong and weak results do not stand in their true shares. The source gives no active or inactive call for entries shown without one.

UniProt P14416, sequence (P14416 whole entry, looked up): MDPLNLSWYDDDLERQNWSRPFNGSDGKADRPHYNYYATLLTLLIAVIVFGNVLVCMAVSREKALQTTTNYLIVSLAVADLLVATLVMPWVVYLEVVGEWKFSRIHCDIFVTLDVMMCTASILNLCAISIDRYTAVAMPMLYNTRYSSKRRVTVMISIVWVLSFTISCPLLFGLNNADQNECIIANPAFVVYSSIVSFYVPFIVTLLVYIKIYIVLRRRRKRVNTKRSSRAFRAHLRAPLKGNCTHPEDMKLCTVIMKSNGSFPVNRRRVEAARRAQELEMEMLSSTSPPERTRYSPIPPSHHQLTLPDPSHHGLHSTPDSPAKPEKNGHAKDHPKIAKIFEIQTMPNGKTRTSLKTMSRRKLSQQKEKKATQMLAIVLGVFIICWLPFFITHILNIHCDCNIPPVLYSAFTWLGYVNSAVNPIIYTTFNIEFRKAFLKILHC

The target in this experiment is D(2) dopamine receptor (Homo sapiens) (UniProt P14416). Kind of experiment: HTS Assay for Allosteric Antagonists of the Human D2 Dopamine Receptor: Primary Screen for Antagonists. Further: 0% is about no effect. Particulars: HEK293 TREx D2 cells, calcium flux, dopamine EC80; at 10 µM; stronger effect = higher value. In a few lines:
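Measurement of antagonist activity uses fluorescent calcium dye in inducible HEK293 T-REx D2 cells: 10 s baseline, compound addition with 180 s read, EC80 dopamine addition with a further 180 s read.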
Background: Calcium assays in cells follow changes in intracellular calcium, usually with a dye or a luminescent sensor.
Turning to `Cc1cn2c(=O)cc(COc3cccc(NC(=O)c4ccc(C(C)(C)C)cc4)c3)nc2s1`, the inhibition (as a rule, the change of the read-out against control, counted positive when it falls) is 19.7%.
Regarding `CCOc1ccc(NC(=O)c2c(C)nn(-c3ccc(F)cc3)c2-n2cccc2)cc1`, the inhibition worked out at 1.61%.
Consider `C=CCc1ccccc1OCCSc1nc(-c2cccs2)nc2cc(=O)[nH]n12`, for which the inhibition is 0.958%.
With `O/N=C1/CCc2nonc2/C1=N/O` the figure was active: 39.1%; with `COc1cc(CC(NC(C)=O)C(=O)NC2CCN(C(=O)C3CC3)CC2)cc(OC)c1` (configuration not stated), active: 32.5%.
Turning to `O=C1Nc2ccccc2Oc2cc(Oc3cccc(Cl)c3)ccc21`, the inhibition is -4.49%.
The same measure for `Cc1nc2nc(SCC(=O)N(C)Cc3ccccc3)nn2c(C)c1Cc1ccccc1Cl`: 8.07%; for `Cc1cc(C)c(S(=O)(=O)N2CCC(n3c(C(F)(F)F)nc4cccnc43)CC2)c(C)c1`: 3.11%; for `Fc1ccc(N2CCN(c3nc4ccccc4c4nc(-c5cccnc5)nn34)CC2)cc1`: 2.54%.
The same measure for `Cc1c(Cl)cccc1-c1ccc(CNCCCSc2nnnn2C)o1`: -28.4%; for `CCCCNC(=S)N/N=C/c1ccc(C#N)cc1`: active: 39.3%; for `CCCCN(C)CCNC(=O)C1CCCN(S(=O)(=O)c2cccc3nsnc23)C1` (configuration not stated): -20.4%.
With `Cc1nnc(N2CCCC(C(=O)NCc3ccccc3)C2)c2nn(-c3ccccc3)c(C)c12` (configuration not stated), the inhibition is -4.6%.
Regarding `CN1CCN(C(=O)CCN2C(=O)/C(=C/c3cccc(Br)c3)SC2=S)CC1`, the inhibition is active: 31%.
The same measure for `COC(=O)c1sc2cccc(F)c2c1S(=O)(=O)N1CCN(c2cccc(OC)c2)CC1`: -5.97%.
Regarding `CCOC(=O)c1cc(-c2ccccc2)n(CCC(=O)NCc2ccccc2Cl)c1C`, the inhibition is -0.17%.
Take `COc1ccc(Nc2nc3ccccc3nc2NS(=O)(=O)c2ccc(C)cc2)c(OC)c1`: the inhibition was 19.7%.
As for `COc1ccccc1/C=C/CN1CCCC(CCC(=O)NCc2ccc(F)c(F)c2)C1` (configuration not stated), the inhibition was active: 33%.
As for `COc1ccc(Cl)cc1NC(=O)CSc1nnc(CN2CCOCC2)n1-c1ccc(Cl)cc1`, the inhibition was active: 75.9%.
On to `CCN(CC)c1cc(C)c2cc(NC(=O)c3cccc(OC)c3OC)ccc2n1`, for which the inhibition was -1.16%.
For the molecule `O=C(COc1ccccc1F)OCc1cc(=O)n2nc(C3CCCCC3)sc2n1`, the inhibition is -0.761%.
The same measure for `COc1cccc2cc(S(=O)(=O)c3ccc(F)c(C)c3)c(=O)oc12`: -2.89%.
Take `CC(=O)Nc1ccc(NC(=O)c2cc(=O)c3ccccc3o2)cc1`: the inhibition was -3.21%.
Regarding `Cc1c(Cl)c(C(=O)NNC(=S)NCc2ccco2)nn1C`, the inhibition is active: 34.9%.
With `COc1ccc(OCc2ccc(-c3nc(C#N)c(N4CCN(c5ccccc5)CC4)o3)o2)cc1`, the inhibition was -13.7%.
Take `Cc1cc(-c2ccc(C)c(S(=O)(=O)Nc3cccc(C)n3)c2)on1`: the inhibition was -9.91%.
Turning to `Cc1ccccc1-c1cc(C(=O)NCc2cccs2)n(CC2CC(c3cccnc3)=NO2)n1` (configuration not stated), the inhibition was active: 37.9%.
As for `CCc1ccc(-n2nnc(-c3nsc(NC(=O)c4ccccc4Cl)n3)c2C)cc1`, the inhibition was found to be 22.1%.
The same measure for `COc1ccc(-c2nc(-c3cc4cc(Br)ccc4oc3=O)cs2)cc1`: 5.68%; for `COc1ccccc1N1CCN(c2nc3ccccc3n3cnnc23)CC1`: 1.16%.
With `O=C(CCn1nc(-c2ccccc2)c2ccccc2c1=O)Nc1ccccc1` the figure was 8.81%; with `Cc1cccc(C)c1NC(=O)Nc1csc2c1CCCC2`, 7.5%; with `Cc1ccc2nc(N(CCCN(C)C)C(=O)c3ccco3)sc2c1`, -26%.
For the molecule `O=C(Nc1ccc(Br)cc1)c1ccc(F)c(S(=O)(=O)NC2CCCCCC2)c1`, the inhibition was -7.25%.
The same measure for `CC1(C)Cc2c(ccc3ccccc23)/C(=C/C(=O)N2CCCCC2)N1`: active: 32.7%; for `Cc1ccccc1-c1nc(SCC(=O)NCc2ccc(F)cc2)c2c(=O)n(C)c(=O)n(C)c2n1`: -16.7%; for `COc1ccc(NC(=O)c2ccco2)cc1NC(=O)COc1cccc(C)c1C`: 3.29%.
The same measure for `CCc1ccc(NC(=O)CN(C)S(=O)(=O)c2ccc3c(c2)c(=O)n(C)c(=O)n3C)cc1`: -2.81%.
`COc1ccc(C)cc1NC(=O)COc1cc(=O)n(C)c2ccccc12`: the inhibition amounted to 8.04%.
In the case of `Cc1ccc(NC(=O)c2nnn(Cc3ccccc3)c2N)cc1C`, the inhibition is -5.16%.
As for `CCSc1nnc(NC(=O)c2c(-c3ccccc3Cl)noc2C)s1`, the inhibition was active: 109%.
Regarding `CC1CN(C(=O)Nc2ccc(C(=O)NCc3ccccc3F)cc2)c2ccccc2S1` (configuration not stated), the inhibition came out at 11.4%.
As to `COC(=O)c1ccc(NC(=O)CSc2n[nH]c(-c3ccccc3)n2)cc1`, the inhibition was -14.4%.
As to `CCN1CCN(c2nc3c(C)cccn3c(=O)c2/C=C(\C#N)S(=O)(=O)c2ccccc2)CC1`, the inhibition is active: 37.3%.
With `c1cnc(N2CCN(Cc3ccc4c(c3)OCO4)CC2)cn1` the figure was active: 89.9%; with `Cc1ccc(C)c(N2C(=O)N(Cc3ccccc3C)c3ccccc3S2(=O)=O)c1`, 5.13%.
For `O=C(Nc1nc2c(Cl)cccc2s1)c1ccc(S(=O)(=O)N2CCc3ccccc32)cc1`, the inhibition was -0.419%.
On to `O=C(NC(=S)Nc1ccc2oc(=O)ccc2c1)c1cccc(Cl)c1`, for which the inhibition is active: 30.4%.
Turning to `COC(=O)c1nnn(-c2cccc(C)c2)c1N`, the inhibition turned out to be 1.97%.
The same measure for `O=C(Nc1ccc(Oc2ccccc2)cc1)c1ccc(F)c(S(=O)(=O)N2CCN(c3cccc(Cl)c3)CC2)c1`: -16.2%; for `COc1ccc(-n2c(SCc3nc(-c4ccc(C)cc4)no3)nnc2-c2ccccc2)cc1`: -0.808%.
The same measure for `CC(C)Oc1ccc(CNC(=O)CN2C(=O)CCn3nc(-c4cn(C)c5ccccc45)cc32)cc1`: 2.63%; for `CCOC(=O)c1ccc(NC(=O)CN(Cc2ccc(C)cc2)S(=O)(=O)c2ccc(C)cc2)cc1`: 0.97%.
As to `Cc1cccc(C)c1-n1ncc(C(=O)NCCCN2CCCCC2)c1C1CCN(C(=O)OC(C)(C)C)CC1`, the inhibition was -10.9%.
Regarding `CCCCOc1ccc(C(=O)NCC(c2ccc(Cl)cc2)N2CCOCC2)cc1` (configuration not stated), the inhibition was determined as 3.19%.
For `COc1ccc(/C=C/C(=O)Nc2ccc(C)cc2)cc1`, the inhibition was -13.9%.
As for `CCN(CC)c1ccc(NC(=O)Cn2ncc3c(C)n(Cc4ccccc4F)c(C)c3c2=O)c(C)c1`, the inhibition was 4.9%.
With `Cc1ccc(NC(=O)Cc2ccc(NC(=O)N3CCCCc4ccccc43)cc2)cc1Cl`, the inhibition was determined as 4.58%.
As for `COc1ccccc1C(=O)Nc1ccnn1C1CCN(CCCC2CCCC2)CC1`, the inhibition is active: 30.7%.
On to `COc1cccc(-c2nc(S(=O)(=O)c3ccc(C)cc3)c(N3CCCCCC3)o2)c1`, for which the inhibition was determined as 9.47%.
For the molecule `CC(=O)c1ccc(NC(=O)Nc2ccc3snnc3c2)cc1`, the inhibition is -8.06%.
Consider `CCOc1ccc(-c2nnc(SCC(=O)NC3CCCCC3)nc2-c2ccc(OCC)cc2)cc1`, for which the inhibition came to 6.19%.
